This assay concerns the target Genome polyprotein (dengue virus type 2) (UniProt P29990).
The mark [1] stands for this setting: Thailand/16681/1984, Concentration 25.0 uM, Number of replicates 1.0.

Each structure is given as a SMILES string. Hit rate of the full screen: of about 2,000 compounds, about 110 (5.5%) showed an effect of 50% or more. The list shows a part of the results.

On to `CNC(=O)c1cnncc1NS(=O)(=O)c1ccc(Oc2ccccc2Cl)cc1`, for which the inhibition (Thailand/16681/1984, Concentration 49.5 uM, Number of replicates 2.0, Standard deviation 2.9688082409176766 %) was 2.22%; the inhibition (Thailand/16681/1984, Concentration 99.01 uM, Number of replicates 2.0, Standard deviation 2.2862743420867915 %) worked out at 7.71%; the inhibition (Thailand/16681/1984, Concentration 198.0 uM, Number of replicates 2.0, Standard deviation 2.701916446857586 %) was 19.5%.

Regarding `c1cc(CN2CCOC[C@@H]2Cc2c[nH]c3ccccc23)c2[nH]ncc2c1`, the inhibition turned out to be 1.44% (Thailand/16681/1984, Concentration 49.5 uM, Number of replicates 2.0, Standard deviation 0.0760431985446895 %); 3.71% (Thailand/16681/1984, Concentration 99.01 uM, Number of replicates 2.0, Standard deviation 0.06426871776989805 %); 3.93% (Thailand/16681/1984, Concentration 198.0 uM, Number of replicates 2.0, Standard deviation 0.6000060757363623 %).

`Cn1ccc(NS(=O)(=O)c2ccc(Oc3ccccc3)cc2)n1`: the inhibition is -5.09% (Thailand/16681/1984, Concentration 49.5 uM, Number of replicates 2.0, Standard deviation 0.1825498020182651 %); -3.8% (Thailand/16681/1984, Concentration 99.01 uM, Number of replicates 2.0, Standard deviation 1.2530956014100136 %); -2.6% (Thailand/16681/1984, Concentration 198.0 uM, Number of replicates 2.0, Standard deviation 2.341174068313809 %).

In the case of `CC(C)N(C[C@H](O)c1ccc(O)c(O)c1)C(=O)C1CCN(c2ccc(C=O)cc2)CC1`, the inhibition under setting [1] stood at 14.1%.

`Nc1ccc(Cl)c2cccnc12`: the inhibition runs as follows: (Thailand/16681/1984, Concentration 49.95 uM, Number of replicates 2.0, Standard deviation 3.8383177085719704 %) -6.59%; (Thailand/16681/1984, Concentration 99.9 uM, Number of replicates 2.0, Standard deviation 5.003138959022175 %) -3.71%.

For `Cc1nn(Cc2cccnc2F)cc1C1CCNCC1`, the inhibition by setting is: (Thailand/16681/1984, Concentration 49.5 uM, Number of replicates 2.0, Standard deviation 2.01751691250901 %) -2.03%; (Thailand/16681/1984, Concentration 99.01 uM, Number of replicates 2.0, Standard deviation 2.3800395844705995 %) -1.46%; (Thailand/16681/1984, Concentration 198.0 uM, Number of replicates 2.0, Standard deviation 0.22993769543518583 %) -2.53%.

On to `Cc1cc(CO)c2cccc(NCCc3c(C)n[nH]c3C)c2n1`, for which the inhibition runs as follows: (Thailand/16681/1984, Concentration 49.95 uM, Number of replicates 2.0, Standard deviation 0.9348671493542363 %) 1.06%; (Thailand/16681/1984, Concentration 99.9 uM, Number of replicates 2.0, Standard deviation 1.0610742224195924 %) 7.93%.

`Cc1cccc(NC(=O)CNC(=O)C2CCN(c3ccc(C=O)cc3)CC2)c1C`: under setting [1], the inhibition is 13%.

For the molecule `CN1CCCC[C@@H](CNCc2nnc3ccccn23)C1=O`, the inhibition (Thailand/16681/1984, Concentration 49.5 uM, Number of replicates 2.0, Standard deviation 0.3731332148311917 %) was -1.86%; the inhibition (Thailand/16681/1984, Concentration 99.01 uM, Number of replicates 2.0, Standard deviation 1.4203136864923194 %) is 0.115%; the inhibition (Thailand/16681/1984, Concentration 198.0 uM, Number of replicates 2.0, Standard deviation 3.0558410668925435 %) was 0.508%.

Regarding `O=Cc1ccc(N2CCC(C(=O)N[C@H]3Cc4ccc(Br)cc4C3)CC2)cc1`, the inhibition under setting [1] was 3.19%.

As for `Cc1cc(Cl)c2cccc(NC(=O)[C@@H]3CCCC[C@H]3N)c2n1`, the inhibition (Thailand/16681/1984, Concentration 99.9 uM, Number of replicates 2.0, Standard deviation 1.2808103574664134 %) is -9.95%.

In the case of `O=Cc1ccc(N2CCC(C(=O)NCC(=O)c3ccc([N+](=O)[O-])cc3)CC2)cc1`, under setting [1], the inhibition turned out to be 19.8%.

`O=C(NCc1c[nH]nn1)c1cc(Cl)ccc1NS(=O)(=O)c1ccc(Oc2ccccc2Cl)cc1`: the inhibition runs as follows: (Thailand/16681/1984, Concentration 49.5 uM, Number of replicates 2.0, Standard deviation 0.023138282657692737 %) 75.2%; (Thailand/16681/1984, Concentration 99.01 uM, Number of replicates 2.0, Standard deviation 0.008898717007196123 %) 63.2%; (Thailand/16681/1984, Concentration 198.0 uM, Number of replicates 2.0, Standard deviation 0.06140627240643217 %) 36.5%.

Take `COc1nscc1-c1ccccc1C(=O)Nc1cnn(C)c1`: the inhibition was -2.15% (Thailand/16681/1984, Concentration 49.5 uM, Number of replicates 2.0, Standard deviation 3.4553083491697665 %); -1.12% (Thailand/16681/1984, Concentration 99.01 uM, Number of replicates 2.0, Standard deviation 2.823413251353637 %); 1.59% (Thailand/16681/1984, Concentration 198.0 uM, Number of replicates 2.0, Standard deviation 2.6036236108826314 %).

Turning to `Cc1nn([C@@H](C)c2ccc(F)c(F)c2F)cc1C1CCNCC1`, the inhibition worked out at 0.344% (Thailand/16681/1984, Concentration 49.5 uM, Number of replicates 2.0, Standard deviation 2.5332983699082936 %); 0.372% (Thailand/16681/1984, Concentration 99.01 uM, Number of replicates 2.0, Standard deviation 1.1323289278441409 %); 5.1% (Thailand/16681/1984, Concentration 198.0 uM, Number of replicates 2.0, Standard deviation 6.845165318926996 %).

Take `O=C(Nc1cccc(B(O)O)c1)[C@H]1CCN2CCOC[C@@H]12`: the inhibition was -7.27% (Thailand/16681/1984, Concentration 49.5 uM, Number of replicates 2.0, Standard deviation 4.614378251208887 %); -6.49% (Thailand/16681/1984, Concentration 99.01 uM, Number of replicates 2.0, Standard deviation 4.682429395751547 %); -2.94% (Thailand/16681/1984, Concentration 198.0 uM, Number of replicates 2.0, Standard deviation 0.09888712761238215 %).

Consider `Cc1cc(CO)c2cccc(Cc3ccccc3NC(=O)[C@@H](N)CCN)c2n1`, for which the inhibition is -3.08% (Thailand/16681/1984, Concentration 49.95 uM, Number of replicates 2.0, Standard deviation 0.5289626735368232 %) and 3.81% (Thailand/16681/1984, Concentration 99.9 uM, Number of replicates 2.0, Standard deviation 0.0906990064710797 %).

`O=C(O)c1cccc(NC(=O)c2ccc3[nH]ccc3c2)c1`: the inhibition (Thailand/16681/1984, Concentration 49.5 uM, Number of replicates 2.0, Standard deviation 0.22300032417029267 %) is 5.57%; the inhibition (Thailand/16681/1984, Concentration 99.01 uM, Number of replicates 2.0, Standard deviation 0.15567022791195734 %) turned out to be 15.4%; the inhibition (Thailand/16681/1984, Concentration 198.0 uM, Number of replicates 2.0, Standard deviation 0.15662712996054867 %) was found to be 36.4%.

Take `CNC(=O)c1cc(OC)ccc1NS(=O)(=O)c1ccc(Oc2ccccc2Cl)cc1`: the inhibition is 7.08% (Thailand/16681/1984, Concentration 49.5 uM, Number of replicates 2.0, Standard deviation 1.018543331825067 %); 15.5% (Thailand/16681/1984, Concentration 99.01 uM, Number of replicates 2.0, Standard deviation 0.3266212172200244 %); 21.9% (Thailand/16681/1984, Concentration 198.0 uM, Number of replicates 2.0, Standard deviation 0.9287695329724984 %).

Take `Cc1cnccc1NC(=O)c1cn(C)c(=O)n(C)c1=O`: the inhibition was -0.508% (Thailand/16681/1984, Concentration 49.5 uM, Number of replicates 2.0, Standard deviation 0.3392530070403759 %); -0.811% (Thailand/16681/1984, Concentration 99.01 uM, Number of replicates 2.0, Standard deviation 1.12506268076905 %); -0.548% (Thailand/16681/1984, Concentration 198.0 uM, Number of replicates 2.0, Standard deviation 0.6438220237419848 %).

Source of the values: ChEMBL document CHEMBL5606460, “ASAP - DENV-2 NS2B-NS3 protease fluorescence single point” (2024).
